Data as given in PubChem BioAssay AID2451 (National Center for Advancing Translational Sciences (NCATS), 2010).
About 2,100 (0.72%) of roughly 290,000 compounds were called active. Inconclusive results, whose numbers are uncertain, are shown with a selection of clear calls. The call rests on the fitted dose curve; in most records, active means well fitted inhibition curve with a large enough effect; inconclusive means small, poorly fitted or top-dose-only effect, or effect the other way; inactive means flat fitted curve, though single readings scatter. A potency beside an inconclusive call is a rough fit, not a confirmed value.

The compounds below were run against Fructose-bisphosphate aldolase (Giardia intestinalis (strain ATCC 50803 / WB clone C6)) (UniProt A8B2U2) (assay: qHTS Assay for Inhibitors of Fructose-1,6-bisphosphate Aldolase from Giardia Lamblia). Settings: purified Giardia FBPA; activity, negative = inhibition: at 59.6 µM (top of the series) unless noted.
Procedure, shortened: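 Giardia FBPA (40 nM reagent) was preincubated 10 min at RT with compound (up to 57.5 uM final), then substrate plus GAPDH/TPI/NAD/arsenate coupling system with diaphorase/resazurin was added; resorufin fluorescence (525/598 nm) was read after 20 min.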
Further: nearly all actives have a fitted effect of over 55% in size.
On the % scale 0 is the no-effect control and ±100 the full control effect; potency means the concentration at half of the fitted maximal effect; tags describe the fitted curve by direction and shape.

UniProt A8B2U2, sequence (A8B2U2 whole entry, looked up): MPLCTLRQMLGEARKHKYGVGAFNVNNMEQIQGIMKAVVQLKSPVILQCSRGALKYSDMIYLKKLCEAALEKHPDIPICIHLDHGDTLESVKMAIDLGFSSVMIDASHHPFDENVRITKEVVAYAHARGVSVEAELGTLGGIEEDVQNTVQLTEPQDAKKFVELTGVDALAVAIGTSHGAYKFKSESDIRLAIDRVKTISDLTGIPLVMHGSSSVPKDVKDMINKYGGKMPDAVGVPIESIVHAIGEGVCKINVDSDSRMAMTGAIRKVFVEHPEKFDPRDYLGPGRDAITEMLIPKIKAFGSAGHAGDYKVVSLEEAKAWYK

| SMILES | activity, negative = inhibition | Potency |
| --- | --- | --- |
| COC(=O)c1[nH]c2ccccc2c1NC(=O)c1c(F)cccc1F | inactive: 0.594% | – |
| Cc1nonc1C(=O)N/N=C/c1ccncc1 | inactive: -1.31% | – |
| O=C(O)CN(CCO)CCN(CC(=O)O)CC(=O)O | – | inconclusive: 44.6 µM [inhibitor, single point] |
| COc1ccc(NC(=O)CC2Sc3ncnn3C2=O)cc1 (stereo not drawn) | – | inconclusive: 6.29 µM [inhibitor, partial curve] |
| CCC(CC)NC(=O)c1cccc([N+](=O)[O-])c1C | inactive: 5.94% | – |
| CC(C)NCC(O)c1cc(O)cc(O)c1 (stereo not drawn) | – | inconclusive: 3.54 µM [inhibitor, full curve] |
| Cc1ccc(S(=O)(=O)NCc2nc3ccccc3[nH]2)cc1 | inactive: -5.58% | – |
| Cc1c(Cl)cccc1N(Cc1ccc(C(=O)O)cc1)S(=O)(=O)c1ccccc1 | – | inconclusive: 15.8 µM [activator, single point] |
| Cc1cc2cc(CNC(=S)NC3CCCCC3)ccc2[nH]1 | inactive: 0.619% | – |
| N#Cc1c(N)n(CCNC(=O)c2cccs2)c2nc3ccccc3nc12 | – | inconclusive: 15.8 µM [inhibitor, partial curve] |
| CCCn1nnc(NC(=S)NC(=O)Cc2ccccc2)n1 | – | inconclusive: 1.99 µM [inhibitor, partial curve] |
| COc1ccc(NC(=O)CN2CCN(Cc3ccc4c(c3)OCO4)CC2)cc1OC | – | active: 17.7 µM |
| CC(=O)[O][Sn]([c]1ccccc1)([c]1ccccc1)[c]1ccccc1 | – | inconclusive: 1.99 µM [inhibitor, partial curve] |
| C=CCn1c(O)c(C(CC)=Nc2ccc(N(C)C)cc2)c(=O)[nH]c1=O | – | inconclusive: 15.8 µM [inhibitor, partial curve] |
| COc1ccc(OC)c(C2CC(=O)N3CN(c4ccccc4)CSC3=C2C#N)c1 (stereo not drawn) | – | active: 1.77 µM |
| CC(=O)Nn1c(COc2ccccc2C)nc2ccccc2c1=O | inactive: 0.743% | – |
| COc1ccc(NC(=O)N2CCC3(CC2)CCN(C(=O)c2cccn2C)CC3)cc1 | inactive: -3.84% | – |
| CCc1nnc(NC(=O)CN2CCN(Cc3ccc(C)cc3)CC2)s1 | – | inconclusive: 5.01 µM [inhibitor, partial curve] |
| Cc1ccc(NC(=O)c2cc(NC(=O)c3ccco3)ccc2N2CCOCC2)cc1Cl | inactive: -2.56% | – |
| O=C(O)CSc1ncnc2scc(-c3ccc(Br)cc3)c12 | – | inconclusive: 15.8 µM [activator, single point] |
| Oc1ccccc1-c1nc2c3ccccc3c3ccccc3c2[nH]1 | – | active: 17.7 µM |
| CCOC(=O)Cc1cc(=O)n2[nH]c(C)c(-c3ccc(Cl)cc3)c2n1 | – | inconclusive: 22.3 µM [inhibitor, single point] |
| Cc1cccc(C(=O)NC(=S)NNC(=O)c2cccs2)c1 | – | inconclusive: 1.58 µM [activator, full curve] |
| CC(C)(C)C(=O)[C@@H]1[C@@H]2C(=O)N(Cc3ccccc3)C(=O)[C@@H]2[C@H]2c3ccccc3C=CN12 | – | inconclusive: 7.06 µM [inhibitor, partial curve] |

| SMILES | activity, negative = inhibition | Potency |
| --- | --- | --- |
| COc1ccccc1CNc1ccnc(-c2ccc(C(=O)N(C)C)cc2)n1 | inactive: 1.5% | – |
| Cc1cc(C)cc(C(=O)NC2C(=O)N3C(C(=O)O)=C(CSc4nnc(C)s4)CSC23)c1 (stereo not drawn) | – | inconclusive: 14.1 µM [inhibitor, partial curve] |
| NC(=O)CC1C(=O)N(c2ccccc2)C(=S)N1NC(=O)c1ccc(Br)cc1 (stereo not drawn) | – | inconclusive: 7.94 µM [inhibitor, partial curve] |
| COc1ccc(N(C(=O)CSCC(=O)Nc2cc(C)on2)C(C(=O)NC2CCCCC2)c2ccc(O)c(O)c2)cc1 (stereo not drawn) | – | inconclusive: 7.06 µM [inhibitor, partial curve] |
| CCN(CC)S(=O)(=O)c1ccc(C(=O)NC(=S)N(CCC#N)Cc2cccnc2)cc1 | – | active: 12.6 µM |
| C=CCn1c(N)c(C(=O)NCC2CCCO2)c2nc3ccccc3nc21 (stereo not drawn) | – | inconclusive: 1.26 µM [inhibitor, full curve] |
| O=C(CC(c1ccccc1)c1cc(Br)ccc1O)NCCN1CCOCC1 (stereo not drawn) | – | inconclusive: 31.5 µM [activator, partial curve] |
| COc1ccccc1CNC(=O)[C@H](C)NC(=O)C1CCN(C(=O)[C@@H](N)C(C)C)CC1 | – | inconclusive: 12.6 µM [inhibitor, partial curve] |
| O=C(Nc1ccc2ccccc2n1)c1ccccc1Cl | inactive: -15.1% | – |
| Cc1cc(CN(C)C(=O)CC2C(=O)NCCN2Cc2ccc(-c3ccccc3)cc2)on1 (stereo not drawn) | – | inconclusive: 20 µM [inhibitor, partial curve] |
| Cc1ccc(CSc2nnc(SCC(=O)N/N=C/c3c[nH]c4ccccc34)s2)cc1 | – | inconclusive: 12.6 µM [inhibitor, partial curve] |
| Clc1ccc(C2=NNC(=NCc3ccccc3)SC2)cc1 | inactive: -1.38% | – |
| CC1(C)CC(N2CCOCC2)=CC(=[N+]2CCOCC2)C1 | inactive: -6.13% | – |
| COc1cc(C(=O)N/N=C(\c2ccccc2)c2ccccn2)cc(OC)c1OC | inactive: -13.1% | – |
| CC(C)C[C@H](NC(=O)c1nc[nH]c1C(=O)NCc1ccccc1)C(=O)OC(C)(C)C | – | inconclusive: 15.8 µM [inhibitor, single point] |
| Cc1cccc(CSc2[nH]c(=O)ncc2C)c1 | inactive: 4.05% | – |
| Cc1ccccc1-n1c(-c2ccc(=O)[nH]n2)n[nH]c1=S | – | active: 6.29 µM |
| COc1ccc(C(c2nnnn2Cc2cccs2)N2CCN(c3ccccc3F)CC2)cc1OC (stereo not drawn) | – | inconclusive: 8.91 µM [inhibitor, full curve, poor fit] |
| CCCCCOc1ccc(C(O)C(CN2CCOCC2)c2ccccc2)cc1 (stereo not drawn) | – | inconclusive: 7.94 µM [inhibitor, full curve] |
| Cc1cccc(OCCNC(=S)NC(=O)c2cncc(Br)c2)c1 | inactive: -27.6% | – |
| Cc1ccc(S(=O)(=O)NCc2csc(C)n2)cc1 | inactive: -15.4% | – |
| C=CCc1cc(Cl)ccc1OCCCNCCO | inactive: -27% | – |
| C[n+]1ccccc1/C=C/c1ccccc1Cl | – | inconclusive: 22.4 µM [inhibitor, partial curve] |
| O=C(CN1c2cccc3cccc(c23)S1(=O)=O)Nc1cccc(S(=O)(=O)N2CCOCC2)c1 | – | inconclusive: 17.7 µM [inhibitor, partial curve] |
